In US20260200947A1, “FUSED CYCLIC COMPOUNDS AND USE THEREOF” (Jacobio Pharmaceuticals Co., Ltd., priority 2022, published 2026):

How the values were obtained:
[1] = test system: Capan-2 cells (K-Ras G12V)

Row | SMILES | IC50 (AGS cells (K-Ras G12D)) | IC50 [1]
1 | C#Cc1c(F)ccc2cc(N)cc(-c3nc4c5c(nc(OC(C)[C@@]67CCCN6C[C@H](F)C7)nc5c3F)N3CCCOCC3N4C)c12 (some centres unmarked) [Compound 150] | 0.0509 µM | 0.0541 µM
2 | N#Cc1c(N)sc2c(F)ccc(-c3c(C4CC4)c4c5c(nc(OC[C@@]67CCCN6C[C@H](F)C7)nc5c3F)N3CCCOC[C@H]3CO4)c12 [Compound 132] | – | 0.154 µM
3 | C#Cc1c(F)ccc2cc(N)cc(-c3nc4c5c(nc(OC[C@@]67CCCN6C[C@H](F)C7)nc5c3F)N3CC(CF)COCC3N4C)c12 (some centres unmarked) [Compound 124] | – | 0.015 µM
4 | C#Cc1c(F)ccc2cc(N)cc(-c3nc4c5c(nc(OC[C@@]67CCCN6C[C@H](F)C7)nc5c3F)N3C(COCC[C@@H]3C)C4=C)c12 (some centres unmarked) [Compound 128] | 0.00245 µM | 0.00157 µM
5 | CN(C)CC1(COc2nc3c4c(nc(-c5ccc(F)c6sc(N)c(C#N)c56)c(F)c4n2)N(C)[C@@H]2COCCCN32)CC1(F)F (some centres unmarked) [Compound 164] | 0.106 µM | –
6 | N#Cc1c(N)sc2c(F)ccc(-c3nc4c5c(nc(OC[C@@]67CCCN6C[C@H](F)C7)nc5c3F)N3CCCOC[C@H]3CO4)c12 [Compound 160] | 0.0399 µM | 0.062 µM
7 | C#Cc1c(F)ccc2cc(N)cc(-c3nc4c5c(nc(OC[C@@]67CCCN6C[C@H](F)C7)nc5c3F)N3CC(=C)COC[C@H]3N4C)c12 [Compound 138] | 0.0267 µM | 0.00527 µM
8 | CSc1cccc2cc(N)cc(-c3nc4c5c(nc(OC[C@@]67CCCN6C[C@H](F)C7)nc5c3F)N3CCCOC[C@H]3N4C)c12 [Compound 149] | – | 0.0778 µM
9 | C#Cc1c(F)ccc2cc(N)cc(-c3nc4c5c(nc(OC[C@@]67CCCN6C[C@H](F)C7)nc5c3F)N3CC(CC#N)COCC3N4C)c12 (some centres unmarked) [Compound 126] | 0.0421 µM | 0.0662 µM
